# Measurements taken from the supplement of paper PMC11417369.
# This is one part of the list.
# System: PfAP2-HC AP2 domain (GST-tagged)
# Assay: gcPBM binding intensity (ln(normalized median fluorescence intensity)); higher = stronger DNA binding
# Summary of the method: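 GST-fused DNA-binding domains of P. falciparum, expressed in E. coli, were applied at about 25 μg on average for 1 h to an Agilent 4 × 180k array of primer-extended double-stranded 36-bp intergenic genomic probes and negative controls. Binding intensity is the highest Masliner-normalised natural-log median intensity across replicate spots of either probe orientation, measured with Alexa488 anti-GST antibody and a 488 nm scan.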
row,Sequence,gcPBM binding intensity (ln)
1,GTTAAAATTGGGGACGCATGTTCCTTTCCTTTTTTT [TGCATGCA_site1002],9.46
2,TTATAAATGTAACGATGTACTTTTAAAAGTTTCCTT [XGTACX_site109],9.48
3,ATAATTATTAAGAGAACATGCAAAATATATATGTTT [TGCATGCA_site503],9.63
4,AAAGCACCCAGGCACACACACAAAGGAAAAGAAAAA [CACACA_site232],11
5,ATATATATTTCTTAAAGTACATAATAATAAAAATAT [XGTACX_site8981],9.49
6,AATAGAATAATCCTTACACACACACGCGCACGAATA [CACACA_site6365],10.6
7,ATTTTATTTTTTTGTGATAATTGATTTATATATTGT [TGCATGCA_negctrl_site563],9.59
8,ATTATTTCTTTGTGATGTACAAATAAACATGTTGGT [XGTACX_site5636],9.7
9,TATATATTACATTGTTGTACATATATATTATATATA [XGTACX_site60],9.69
10,ATATATATATATATTTGTACGTATTATGTATTTTTT [XGTACX_site3530],10.3
11,AATACAATAAAATAGTGTACATATATATTATGTATA [XGTACX_site8258],9.83
12,TTAAAATATGATATATGTACATAATTACTAAAAACA [XGTACX_site276],9.6
13,GAATAAATTAAAAACGCATGTATCATTACTACATAA [TGCATGCA_site111],9.62
14,TTTATATTATACTATACATGCATATAATAAAGGTCA [TGCATGCA_site934],9.52
15,GGGTTCAATTTAAAGAGTACAAAAAATGTAGGTCAT [XGTACX_site5290],9.61
16,ATTTATCCAAAAAAATGTACAGGATAATTTGTTCAT [XGTACX_site7737],9.52
17,TATTATGCCTTTAATATACACACTAATATTTTTTTG [CACACA_site2045],9.79
18,TATAAAAATTAATATTGTACGTTTTATGAAAATAAA [XGTACX_site8237],9.22
19,CATAATACCTATAACACACACAATTATACATAAACT [CACACA_site7506],10.2
20,AATATATACATATATTGTACATATAGTTTCTTGCAT [XGTACX_site7871],9.74
21,TTTTTTTTTTTGTGGGTGCGTTTATAAAAACAGGAA,9.62
22,AGAGAGAAAGTTATAACATGCAACAATTTTTAGAAC [TGCATGCA_site96],9.67

row,Sequence,gcPBM binding intensity (ln)
1,TTTCCATATTGTGGATGTACGTTTTGAGGTTTTTAC [XGTACX_site3362],9.76
2,TTTTAATAAACAAAACGTACACATTATTATTATATA [XGTACX_site335],9.53
3,TTTGTAGTTTGCACATGTACACATTTCAAAATAAAG [XGTACX_site7568],9.5
4,ATTATCCATGCATTTACACACACACTAATAAAAATT [CACACA_site9358],10.3
5,TTTAACATAAATTAAACACACAATAAAATACATTAA [CACACA_site6699],9.75
6,CATAAATACAGATATACACACATATATATATATATA [CACACA_site4528],9.75
7,ATAATACATATAGAAGGTACACTATTATTTTCCTGA [XGTACX_site903],9.64
8,GAGGTACATTAATTAGTGCATTAAAATTTTTATCCT,9.49
9,TGTATTATTAATATTTGTACGTAATAATAAAAACAT [XGTACX_site3716],9.54
10,TGGAAACAAAAACACACACACAAAAAAAAAAAAAAA [CACACA_site3209],10.1
11,TCCTTAGAAATATTGATCATAAACTGGAAAGGTATA [XGTACX_negctrl_site354],9.28
12,GAAATATATAAATTGACACACACATATATACATATA [CACACA_site8323],10.1
13,TAATTTCTTATGTATTGTACAAATAATATATTATTT [XGTACX_site3066],9.84
14,ATTCAAAATAATCACAGTACACATGAGATTATCTTT [XGTACX_site2197],9.58
15,ACTTCATAAACATTTTGTACGTATGTATCTTTTTAT [XGTACX_site7012],9.95
16,TTAATATGGAAATGTTGTACATTTCTTGAAGCATTC [XGTACX_site525],9.39
17,TTATTGAAAAACATAATATCTAAGAGGGTAATATAT [GTGCAC_negctrl_site599],9.59
18,TAAAAGGGGATATATGAACACACAAAAAAAAAATAT [CACACA_site8940],9.94
19,TATATATATATGTACACACACACATATAAATAAATA [CACACA_site443],10.3
20,TTAAAAAAAAAAAAAAGTACATAAGTATATATAATA [XGTACX_site4295],9.7
21,CATATTTTTTCTTAAACACACACATATATATATATA [CACACA_site8920],9.92
22,ATATTAAGTTTTATTACACACTCTCAATTTTTATTT [CACACA_site4206],9.87
